Source: publication PMC5700166
Only a part is listed here, and it is no random draw. The list includes weakly bound sequences.

These sequences were tested against T1, GST-Co-NF-kB (UniProt F1ARL5) (assay: protein-binding microarray (PBM)). Conditions: PBM: ~300 nM protein, 6 mM HEPES pH 7.8, 80 mM KCl, 0.5 mM EDTA, 0.5 mM EGTA, 6% glycerol, 35 ng/ul poly-dIdC, 1% milk, 1 h, room temperature; Ap Aiptasia and Nv Nematostella (sea anemones) / Co Capsaspora / Aq Amphimedon (sponge) / Dm Drosophila / Hu human; RHD is the Rel homology domain; high values mean tight binding; most listed sequences are background and not binding sites; double strand, one strand shown.
T1 sequence: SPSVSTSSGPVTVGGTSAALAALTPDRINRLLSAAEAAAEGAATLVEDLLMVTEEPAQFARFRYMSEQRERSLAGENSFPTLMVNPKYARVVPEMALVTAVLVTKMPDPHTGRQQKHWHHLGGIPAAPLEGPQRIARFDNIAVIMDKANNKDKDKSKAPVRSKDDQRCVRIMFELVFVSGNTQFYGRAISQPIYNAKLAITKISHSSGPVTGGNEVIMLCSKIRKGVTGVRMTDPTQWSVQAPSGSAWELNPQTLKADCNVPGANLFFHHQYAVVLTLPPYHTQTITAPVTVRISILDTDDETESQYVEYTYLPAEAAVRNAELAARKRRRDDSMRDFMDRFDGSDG

| Sequence | binding signal [z-score] |
| --- | --- |
| CCGATTAACATCACGGGTTTTTCTGATGTTAATCGGGTCTTGATTCGCTTGACGCTGCTG | 0.785 |
| CCGATTAACATCAAGGTAATTCCTGATGTTAATCGGGTCTTGATTCGCTTGACGCTGCTG | 0.332 |
| CCGATTAACATCAAATGACCCCCTGATGTTAATCGGGTCTTGATTCGCTTGACGCTGCTG | 2.98 |
| CCGATTAACATCAGAAGTGGGAATGATGTTAATCGGGTCTTGATTCGCTTGACGCTGCTG | 2.78 |
| CCGATTAACATCAAGGGTTTTCCTGATGTTAATCGGGTCTTGATTCGCTTGACGCTGCTG | 0.633 |
| CCGATTAACATCAGGGGGAAAGATGATGTTAATCGGGTCTTGATTCGCTTGACGCTGCTG | 8.03 |
| CCGATTAACATCAACAATTCCCCTGATGTTAATCGGGTCTTGATTCGCTTGACGCTGCTG | 7.14 |
| CCGATTAACATCAAAAAGGGAAATGATGTTAATCGGGTCTTGATTCGCTTGACGCTGCTG | 1.33 |
| CCGATTAACATCAGGGGGAGTAATGATGTTAATCGGGTCTTGATTCGCTTGACGCTGCTG | 6.83 |
| CCGATTAACATCAGGAAAGTACCTGATGTTAATCGGGTCTTGATTCGCTTGACGCTGCTG | -0.479 |
| CCGATTAACATCAGGGATTTACCTGATGTTAATCGGGTCTTGATTCGCTTGACGCTGCTG | 0.792 |
| CCGATTAACATCACACCCCCCCGTGATGTTAATCGGGTCTTGATTCGCTTGACGCTGCTG | 4.58 |
| CCGATTAACATCAGGGGGAAAACTGATGTTAATCGGGTCTTGATTCGCTTGACGCTGCTG | 11.7 |
| CCGATTAACATCAGGGTATACCCTGATGTTAATCGGGTCTTGATTCGCTTGACGCTGCTG | 2.48 |
| CCGATTAACATCACCAGTTTCCCTGATGTTAATCGGGTCTTGATTCGCTTGACGCTGCTG | 3.09 |
| CCGATTAACATCAAAACACCCCTTGATGTTAATCGGGTCTTGATTCGCTTGACGCTGCTG | 2 |
| CCGATTAACATCATGCCCGGGAATGATGTTAATCGGGTCTTGATTCGCTTGACGCTGCTG | 3.51 |
| CCGATTAACATCAAAGATTTCCCTGATGTTAATCGGGTCTTGATTCGCTTGACGCTGCTG | 4.84 |
| CCGATTAACATCAAAATCTCCCCTGATGTTAATCGGGTCTTGATTCGCTTGACGCTGCTG | 7.3 |

| Sequence | binding signal [z-score] |
| --- | --- |
| CCGATTAACATCAAAATTTCCCTTGATGTTAATCGGGTCTTGATTCGCTTGACGCTGCTG | 5.01 |
| CCGATTAACATCAGGGTAAGTACTGATGTTAATCGGGTCTTGATTCGCTTGACGCTGCTG | 1.85 |
| CCGATTAACATCAGGGGGGAATATGATGTTAATCGGGTCTTGATTCGCTTGACGCTGCTG | 10.2 |
| CCGATTAACATCACCCCGCCCCCTGATGTTAATCGGGTCTTGATTCGCTTGACGCTGCTG | 3.91 |
| CCGATTAACATCAGGGAGAGCCCTGATGTTAATCGGGTCTTGATTCGCTTGACGCTGCTG | 0.795 |
| CCGATTAACATCACCCGATTCCCTGATGTTAATCGGGTCTTGATTCGCTTGACGCTGCTG | 2.5 |
| CCGATTAACATCAGGGGGAGTTATGATGTTAATCGGGTCTTGATTCGCTTGACGCTGCTG | 7.05 |
| CCGATTAACATCAGAAATATCCCTGATGTTAATCGGGTCTTGATTCGCTTGACGCTGCTG | 1.62 |
| CCGATTAACATCAAAATTCCCTTTGATGTTAATCGGGTCTTGATTCGCTTGACGCTGCTG | 2.62 |
| CCGATTAACATCAAGGGGGTACCTGATGTTAATCGGGTCTTGATTCGCTTGACGCTGCTG | 2.65 |
| CCGATTAACATCAAGGAAACCCCTGATGTTAATCGGGTCTTGATTCGCTTGACGCTGCTG | 2.91 |
| CCGATTAACATCAATTTCCCCCATGATGTTAATCGGGTCTTGATTCGCTTGACGCTGCTG | 10.7 |
| CCGATTAACATCAGGGAATCTCATGATGTTAATCGGGTCTTGATTCGCTTGACGCTGCTG | 1.96 |
| CCGATTAACATCACGGGGCCCCCTGATGTTAATCGGGTCTTGATTCGCTTGACGCTGCTG | 1.49 |
| CCGATTAACATCAAGGATTTCCCTGATGTTAATCGGGTCTTGATTCGCTTGACGCTGCTG | 3.24 |
| CCGATTAACATCAGATAAACCCCTGATGTTAATCGGGTCTTGATTCGCTTGACGCTGCTG | 0.987 |
| CCGATTAACATCAGGCATGCCCCTGATGTTAATCGGGTCTTGATTCGCTTGACGCTGCTG | 0.827 |
| CCGATTAACATCACGGGGGGGAATGATGTTAATCGGGTCTTGATTCGCTTGACGCTGCTG | 9.46 |
